{
  "source": "the supplement of paper PMC4166925",
  "note": "± gives the standard deviation of the averaged measurements. Whole data set: some 33,000 sequences, median “E-score (dimensionless, -0.5 to 0.5)” near -0.046, cut for the highest 2% near 0.36. Some of the results follow.",
  "data": [
    {"tested_on": "T1, SpTbr T-box DNA-binding domain (GST fusion)", "T1 sequence": "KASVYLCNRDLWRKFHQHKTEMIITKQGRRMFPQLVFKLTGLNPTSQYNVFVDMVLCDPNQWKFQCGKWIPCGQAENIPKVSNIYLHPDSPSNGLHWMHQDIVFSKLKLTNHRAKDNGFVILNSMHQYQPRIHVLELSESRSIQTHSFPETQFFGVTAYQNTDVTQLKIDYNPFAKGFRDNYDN", "test": "PBM E-score of 8-mer (E-score (dimensionless, -0.5 to 0.5)); Tbr is Tbrain of the sea star Patiria miniata (Pm) or the sea urchin Strongylocentrotus purpuratus (Sp); higher = stronger binding preference; most listed sequences are background and not binding sites", "settings": "the construct has about 5 more residues each side", "method_in_brief": "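Primer extension turned Universal Agilent oligonucleotide arrays double-stranded. They were incubated with 200 nM protein in PBS (pH 7.5); the protein was a GST-fused Tbr T-box DNA-binding domain expressed in BL21 E. coli at 20 °C and purified on glutathione. Every ungapped 8-mer was scored from the scanned, quantified probe intensities, and the Universal PBM Analysis Suite gave each an enrichment E-score averaged over duplicate arrays.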", "values": [
      {"sequence": "GCACATAC", "PBM E-score of 8-mer": "0.164 ± 0.03"},
      {"sequence": "CACGTGAG", "PBM E-score of 8-mer": "0.13 ± 0.053"},
      {"sequence": "GCCCGATA", "PBM E-score of 8-mer": "-0.0847 ± 0.018"},
      {"sequence": "CCGCAAAG", "PBM E-score of 8-mer": "-0.233 ± 0.015"},
      {"sequence": "CGTAGTAA", "PBM E-score of 8-mer": "-0.122 ± 0.066"},
      {"sequence": "AATCCAGG", "PBM E-score of 8-mer": "-0.0837 ± 0.024"},
      {"sequence": "AATGCGAT", "PBM E-score of 8-mer": "0.0396 ± 0.031"},
      {"sequence": "ACAGACGA", "PBM E-score of 8-mer": "-0.235 ± 0.0019"},
      {"sequence": "TCCGAGCA", "PBM E-score of 8-mer": "-0.352 ± 0.073"},
      {"sequence": "ACCTAGCA", "PBM E-score of 8-mer": "0.188 ± 0.034"},
      {"sequence": "CCAAAGGC", "PBM E-score of 8-mer": "-0.0125 ± 0.018"},
      {"sequence": "AAGATATG", "PBM E-score of 8-mer": "-0.00409 ± 0.01"},
      {"sequence": "GAAGGCAA", "PBM E-score of 8-mer": "-0.163 ± 0.024"},
      {"sequence": "ACGTCAGC", "PBM E-score of 8-mer": "-0.0927 ± 0.059"},
      {"sequence": "AGCCAATC", "PBM E-score of 8-mer": "-0.0978 ± 0.065"},
      {"sequence": "GCTATGAC", "PBM E-score of 8-mer": "0.0634 ± 0.025"},
      {"sequence": "CCGTCACG", "PBM E-score of 8-mer": "0.212 ± 0.011"},
      {"sequence": "GAGTGGAA", "PBM E-score of 8-mer": "0.102 ± 0.085"},
      {"sequence": "AGGGCCAA", "PBM E-score of 8-mer": "-0.293 ± 0.026"},
      {"sequence": "CAGGGATC", "PBM E-score of 8-mer": "-0.17 ± 0.046"},
      {"sequence": "GACAAATA", "PBM E-score of 8-mer": "0.0842 ± 0.084"},
      {"sequence": "AGGACTCG", "PBM E-score of 8-mer": "-0.0393 ± 0.1"},
      {"sequence": "TGATTGCA", "PBM E-score of 8-mer": "0.15 ± 0.051"},
      {"sequence": "ACCCGCAC", "PBM E-score of 8-mer": "0.268 ± 0.032"},
      {"sequence": "CAGACGGG", "PBM E-score of 8-mer": "0.0162 ± 0.03"},
      {"sequence": "AGGATTGC", "PBM E-score of 8-mer": "0.00818 ± 0.037"},
      {"sequence": "AAATCCCG", "PBM E-score of 8-mer": "-0.186 ± 0.035"},
      {"sequence": "CGCCGCTC", "PBM E-score of 8-mer": "-0.203 ± 0.064"},
      {"sequence": "ATGATATC", "PBM E-score of 8-mer": "0.0897 ± 0.021"},
      {"sequence": "ATGAGCCA", "PBM E-score of 8-mer": "-0.174 ± 0.024"},
      {"sequence": "CCCCACGC", "PBM E-score of 8-mer": "-0.0704 ± 0.008"},
      {"sequence": "CCCGCCTA", "PBM E-score of 8-mer": "-0.0474 ± 0.13"},
      {"sequence": "GGATTAAC", "PBM E-score of 8-mer": "-0.0379 ± 0.053"},
      {"sequence": "AATAAGAC", "PBM E-score of 8-mer": "-0.109 ± 0.095"},
      {"sequence": "CGTCTAGC", "PBM E-score of 8-mer": "-0.0785 ± 0.026"},
      {"sequence": "AAGCCCGA", "PBM E-score of 8-mer": "-0.0877 ± 0.072"},
      {"sequence": "CGAGAATC", "PBM E-score of 8-mer": "0.1836 ± 0.0013"},
      {"sequence": "ATCGACCA", "PBM E-score of 8-mer": "0.126 ± 0.0048"},
      {"sequence": "ACACAATC", "PBM E-score of 8-mer": "0.24 ± 0.033"},
      {"sequence": "TGTCAGAA", "PBM E-score of 8-mer": "0.117 ± 0.028"},
      {"sequence": "GCTACAAA", "PBM E-score of 8-mer": "-0.0568 ± 0.089"},
      {"sequence": "ACGTTGAA", "PBM E-score of 8-mer": "-0.0523 ± 0.011"},
      {"sequence": "ATGCAACC", "PBM E-score of 8-mer": "-0.0431 ± 0.029"},
      {"sequence": "CACTATTC", "PBM E-score of 8-mer": "0.0129 ± 0.0026"},
      {"sequence": "CATGCACG", "PBM E-score of 8-mer": "0.0848 ± 0.014"},
      {"sequence": "AAGGATGA", "PBM E-score of 8-mer": "-0.119 ± 0.028"},
      {"sequence": "AAGTTCGG", "PBM E-score of 8-mer": "-0.0374 ± 0.049"},
      {"sequence": "CTGGACCA", "PBM E-score of 8-mer": "-0.132 ± 0.025"},
      {"sequence": "AAGAGATG", "PBM E-score of 8-mer": "-0.0558 ± 0.033"},
      {"sequence": "GGTGCCAA", "PBM E-score of 8-mer": "0.447 ± 0.0064"},
      {"sequence": "ACACTTGG", "PBM E-score of 8-mer": "0.367 ± 0.022"},
      {"sequence": "ATCGGCTC", "PBM E-score of 8-mer": "-0.125 ± 0.044"},
      {"sequence": "ACTTCGAG", "PBM E-score of 8-mer": "0.0665 ± 0.024"},
      {"sequence": "AGACGTTA", "PBM E-score of 8-mer": "-0.0945 ± 0.015"},
      {"sequence": "GACCTTGA", "PBM E-score of 8-mer": "-0.145 ± 0.019"},
      {"sequence": "AGGTAGGG", "PBM E-score of 8-mer": "-0.0789 ± 0.073"},
      {"sequence": "AAACATCA", "PBM E-score of 8-mer": "-0.0262 ± 0.036"},
      {"sequence": "AGAATTCC", "PBM E-score of 8-mer": "-0.127 ± 0.066"},
      {"sequence": "GGGTCTAC", "PBM E-score of 8-mer": "-0.2 ± 0.0073"},
      {"sequence": "GGTCAGGA", "PBM E-score of 8-mer": "-0.11 ± 0.019"},
      {"sequence": "GGATAGCA", "PBM E-score of 8-mer": "0.1153 ± 0.001"},
      {"sequence": "CTTCCTAC", "PBM E-score of 8-mer": "-0.141 ± 0.051"},
      {"sequence": "CTGTTAGA", "PBM E-score of 8-mer": "0.11 ± 0.12"},
      {"sequence": "CTAACTTA", "PBM E-score of 8-mer": "-0.176 ± 0.066"},
      {"sequence": "GAACCAGC", "PBM E-score of 8-mer": "-0.0698 ± 0.026"},
      {"sequence": "ATAGTGTG", "PBM E-score of 8-mer": "0.388 ± 0.026"},
      {"sequence": "GCACCTGC", "PBM E-score of 8-mer": "0.388 ± 0.024"},
      {"sequence": "CACGGATC", "PBM E-score of 8-mer": "-0.042 ± 0.011"},
      {"sequence": "ACCTAAAT", "PBM E-score of 8-mer": "0.0126 ± 0.068"},
      {"sequence": "ATCGCAGA", "PBM E-score of 8-mer": "-0.0763 ± 0.072"},
      {"sequence": "ACTAAGCG", "PBM E-score of 8-mer": "-0.1 ± 0.1"},
      {"sequence": "GTGAGTGA", "PBM E-score of 8-mer": "0.221 ± 0.0052"},
      {"sequence": "ACCCTAAC", "PBM E-score of 8-mer": "0.0196 ± 0.071"},
      {"sequence": "ATCGTTTG", "PBM E-score of 8-mer": "0.0457 ± 0.048"},
      {"sequence": "AATGATAG", "PBM E-score of 8-mer": "-0.165 ± 0.09"},
      {"sequence": "GCCAAAGC", "PBM E-score of 8-mer": "-0.00963 ± 0.048"},
      {"sequence": "GACTACAC", "PBM E-score of 8-mer": "0.205 ± 0.029"},
      {"sequence": "AAATGGTC", "PBM E-score of 8-mer": "-0.301 ± 0.033"},
      {"sequence": "TACCGACA", "PBM E-score of 8-mer": "0.0527 ± 0.056"},
      {"sequence": "ATCTCAGC", "PBM E-score of 8-mer": "0.0378 ± 0.026"},
      {"sequence": "AAAGCCAT", "PBM E-score of 8-mer": "-0.201 ± 0.015"},
      {"sequence": "CGCATTCC", "PBM E-score of 8-mer": "-0.0839 ± 0.0078"},
      {"sequence": "CACGGCAA", "PBM E-score of 8-mer": "0.0654 ± 0.0021"},
      {"sequence": "CACAGGGC", "PBM E-score of 8-mer": "-0.0221 ± 0.018"},
      {"sequence": "AACATCAG", "PBM E-score of 8-mer": "-0.0764 ± 0.029"},
      {"sequence": "TACGGAAA", "PBM E-score of 8-mer": "-0.173 ± 0.034"}
    ]}
  ]
}
